Structures are written as SMILES. About 30 (2%) of roughly 1,300 compounds were called active. Roughly 10% stayed inconclusive and do not appear here. The call rests on the fitted dose curve; in most records, active means well fitted inhibition curve with a large enough effect; inconclusive means small, poorly fitted or top-dose-only effect; inactive means flat fitted curve, though single readings scatter. This is one part of the list.
On the % scale 0 is the no-effect control and ±100 the full control effect; potency means the concentration at half of the fitted maximal effect.

This experiment is described as follows: qHTS for antagonists of the Thyroid Stimulation Hormone Receptor: Hit Validation in HTRF Activity in a Luteinizing Hormone Receptor Cell Line. To be noted: LHR-expressing cell line, cAMP HTRF, antagonist mode; series mostly up to 58 µM; activity change, negative = inhibition: at the top concentration. Put shortly: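 Counter-screen on LH receptor–transfected HEK 293 cells: 30 min compound exposure at room temperature in medium containing 100 uM RO 20-1724 phosphodiesterase inhibitor. Cellular cAMP read by competitive HTRF after lysis with d2-cAMP and anti-cAMP antibody (330 nm excitation; 615/660 nm emission).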
(In general: In qHTS, concentration-response curves come from the screen itself.)
For the compound `C=CS(=O)(=O)c1sc(Cl)c(N2CCOCC2)c1[N+](=O)[O-]`, the “activity change, negative = inhibition” value is inactive: 1.63%. Same read-out and setting: for `COC(CNC(=O)c1ccc(Cn2c(=S)[nH]c3cc4c(cc3c2=O)OCO4)cc1)OC` the value was inactive: 0.428%; for `CCS(=O)(=O)c1ccc(C(=O)Nc2ccccc2)c(Cl)c1Cl`, inactive: -0.276%; for `Cc1ccc(C)c(N2CCN(S(=O)(=O)c3ccc4c(c3)CC(C)N4C(=O)C3CC3)CC2)c1` (stereo not given), inactive: 2.17%. The same measure, in the same setting: the same measure for `COc1ccc(/C=N/NC(=O)c2ccoc2C)cc1COc1c(C)cccc1C`: inactive: -7.58%; for `N#Cc1ccc(C(=O)Nc2nc(-c3cccs3)c(C(=O)C(F)(F)F)s2)cc1`: inactive: -4.4%; for `O=c1[nH]nc(Cc2ccc(-c3cccc(Cl)c3)o2)c2ccccc12`: inactive: 1.92%. On the same count and under the same terms, for `O=S1(=O)C=C(Sc2nc3cc(Cl)ccc3o2)c2ccccc21` the value was inactive: -7.43%. Turning to `Cc1ccc(C)c(C(=O)OCC(=O)Nc2cccc(S(=O)(=O)N3CCCCC3)c2)c1`, the “activity change, negative = inhibition” value was inactive: -0.887%. For the compound `CC(C)(C)OC(=O)N1CCC(CC2CC(c3cccc(Br)c3)=NO2)(C(=O)NCC2CCCCC2)CC1` (stereo not given), the “activity change, negative = inhibition” value is inactive: -1.05%. `Cc1ccccc1C(=O)Nc1nnc(SCC(=O)NC2CC2)s1`: the “activity change, negative = inhibition” value was inactive: -0.682%. Still for that read-out and setting: the same measure for `COc1ccccc1NS(=O)(=O)c1ccc2oc(SCc3ccc(F)cc3)nc2c1`: inactive: 0.681%. Still for that read-out and setting: the same measure for `O=C(Nc1ccc(Br)cc1)c1cccc(S(=O)(=O)Nc2cnc3ccccc3c2)c1`: inactive: 0.767%; for `O=C(Nc1ccccc1Cl)/C(Cl)=C(\Cl)S(=O)c1ccccc1` (stereo not given): inactive: -22.7%.

For the compound `Cc1ccc2oc(C(=O)N3CCCCCC3)c(C)c2c1`, the “activity change, negative = inhibition” value is inactive: 1.02%. Consider `CCc1ccc(/C=C/C(=O)c2cc(Br)ccc(=O)c2O)cc1`, for which the “activity change, negative = inhibition” value is inactive: 0.973%.

`CCOC(=O)c1c(NC(=O)/C=C/C(=O)O)sc(C)c1-c1ccc(F)cc1`: the “activity change, negative = inhibition” value is inactive: -1.43%. Consider `O=c1c2ccccc2nnn1CSc1nnc(-c2cccs2)n1Cc1ccccc1`, for which the “activity change, negative = inhibition” value was inactive: -2.09%. `Cc1[nH]c2ccccc2c1/C=C/c1cc[n+](C)cc1`: the “activity change, negative = inhibition” value was inactive: -8.41%. Same read-out and setting: for `Cc1cc(=O)oc2ccc(OCc3ccccc3)cc12` the value was inactive: 3.09%. Take `CCCn1nc([N+](=O)[O-])c(C(C#N)c2nc3ccccc3o2)c(Cl)c1=O` (stereo not given): the “activity change, negative = inhibition” value was inactive: 1.84%. Same read-out and setting: for `C=CCNC(=O)c1ccc(NC(=O)C2=CSCCO2)cc1` the value was inactive: -0.951%; for `O=C(NC(Nc1nc2ccc([N+](=O)[O-])cc2s1)(C(F)(F)F)C(F)(F)F)c1cccnc1`, inactive: -2.25%; for `Clc1cc(Cl)c(OCc2nc(-c3ccccn3)no2)cc1Cl`, inactive: 0.0616%. Consider `CCCCOCCCNc1ncnc2c1[nH]c1ccccc12`, for which the “activity change, negative = inhibition” value is inactive: -2.7%.

As to `CN(C)c1ccc(NC(=S)c2ccc3ccccc3n2)cc1`, the “activity change, negative = inhibition” value was inactive: 1.72%. Still for that read-out and setting: the same measure for `O=C(OCCc1cc2ccccc2c(=O)o1)c1ccccc1C(F)(F)F`: inactive: -0.186%. On the same count and under the same terms, for `O=C(CSc1nnc(NC(=O)c2cccc(Br)c2)s1)NCC1CCCO1` (stereo not given) the value was inactive: -1.19%.

In the case of `Cc1nc2ccccc2n1CC(=O)N/N=C\C=C\c1ccccc1`, the “activity change, negative = inhibition” value was inactive: 1.98%. Regarding `COc1cccc(N2CCN(c3ncnc4c3cnn4-c3ccc(C)cc3C)CC2)c1`, the Potency was active: 33.8 µM.

For `COC(=O)c1ccc(COc2cc(O)c3c(c2)OC(C)(C)CC3=O)cc1`, the “activity change, negative = inhibition” value is inactive: -3.69%.

For the compound `Cc1ccc2nc(-c3ccc(NC(=O)c4cccnc4)cc3)oc2c1`, the “activity change, negative = inhibition” value was inactive: -8.92%. On to `O=C(c1ccc2c(c1)N(Cc1ccccc1)C(=O)c1ccccc1S2)N1CCCC1`, for which the “activity change, negative = inhibition” value was inactive: 0.549%.

Take `Cc1cc(NC(=O)c2ccccc2)c(Cl)cc1N`: the “activity change, negative = inhibition” value is inactive: 1.15%.

With `COc1ccc(CCNC2=C(Cl)C(=O)N(CCc3ccccc3)C2=O)cc1OC`, the “activity change, negative = inhibition” value was inactive: -9.23%. On the same count and under the same terms, the same measure for `C=CC[C@H](CC(=O)N(CCO)Cc1ccccc1)C(=O)N[C@H](COC(=O)[C@@H](CC=C)Cc1ccc(F)cc1)C(C)(C)C`: inactive: -3.08%; for `CCC1Sc2ccc(S(=O)(=O)Nc3ccc(OC)c(OC)c3)cc2NC1=O` (stereo not given): inactive: -2.27%. The same measure, in the same setting: for `CN(C)c1ccc(N/C=C/C(=O)C(F)(F)F)cc1` the value was inactive: -1.57%; for `Cc1ccc2cccc(Oc3ncnc4scc(-c5ccccc5)c34)c2n1`, inactive: -7.58%.

As for `CC(=O)c1c(C)[nH]c(C(=O)COc2cc(C)ccc2C(C)C)c1C`, the “activity change, negative = inhibition” value is inactive: -1.76%. For `CCOc1ccccc1NC(=O)C(NCCc1ccc(OC)cc1)c1ccccc1` (stereo not given), the “activity change, negative = inhibition” value is inactive: -1.46%.

Regarding `COc1ccc(C)cc1-n1nnnc1SCc1cc(=O)n2cc(C)ccc2n1`, the “activity change, negative = inhibition” value is inactive: -3.61%. Still for that read-out and setting: the same measure for `CCN(Cc1ccccc1)c1ccc(/C=N/NC(=O)c2cccc(S(=O)(=O)N3CCOCC3)c2)cc1`: inactive: -2.74%; for `COc1ccc(C(=O)c2ccccc2)c2c(O)ccc(C(=O)c3ccccc3)c12`: inactive: -5.33%; for `Cc1nc2ccc(C(=O)Nc3ccc4nc[nH]c4c3)cc2[nH]1`: inactive: 0.258%.

For the origin of these results see PubChem BioAssay AID602293 (National Center for Advancing Translational Sciences (NCATS), 2012).
